# Measurements as given in ChEMBL document CHEMBL5606460, “ASAP - DENV-2 NS2B-NS3 protease fluorescence single point” (2024).
# Screen size: about 2,000 compounds; about 110 (5.5%) showed an effect of 50% or more. The list shows a part of the results.
# Molecular target: Genome polyprotein (dengue virus type 2) (UniProt P29990)
# [1] = Thailand/16681/1984, Concentration 25.0 uM, Number of replicates 1.0
smiles,measurement,setting,value
NCc1cccc(NC(=O)[C@]2(NC(=O)OCc3ccccc3)CCc3ccccc32)c1,inhibition,"Thailand/16681/1984, Concentration 49.5 uM, Number of replicates 2.0, Standard deviation 1.8392146277368244 %",-5.75%
same,inhibition,"Thailand/16681/1984, Concentration 99.01 uM, Number of replicates 2.0, Standard deviation 0.17835973092670607 %",-4.69%
same,inhibition,"Thailand/16681/1984, Concentration 198.0 uM, Number of replicates 2.0, Standard deviation 1.909535801540281 %",-3.49%
CCn1ccnc(N2CC[C@H](c3ccn[nH]3)C2)c1=O,inhibition,"Thailand/16681/1984, Concentration 49.5 uM, Number of replicates 2.0, Standard deviation 0.2693433129189313 %",7.79%
same,inhibition,"Thailand/16681/1984, Concentration 99.01 uM, Number of replicates 2.0, Standard deviation 1.1364429028007135 %",16.3%
same,inhibition,"Thailand/16681/1984, Concentration 198.0 uM, Number of replicates 2.0, Standard deviation 0.7874353027004307 %",30.4%
CCn1c(=O)c(N2CC[C@@H](CO)C2)nc2ccccc21,inhibition,"Thailand/16681/1984, Concentration 49.5 uM, Number of replicates 2.0, Standard deviation 0.8446781408235627 %",16.3%
same,inhibition,"Thailand/16681/1984, Concentration 99.01 uM, Number of replicates 2.0, Standard deviation 1.6946189057395897 %",33.2%
same,inhibition,"Thailand/16681/1984, Concentration 198.0 uM, Number of replicates 2.0, Standard deviation 1.3775046688444705 %",53.9%
COc1cc(Cn2cc(C3CCNCC3)c(C)n2)ccn1,inhibition,"Thailand/16681/1984, Concentration 49.5 uM, Number of replicates 2.0, Standard deviation 0.13149513278089658 %",-2.01%
same,inhibition,"Thailand/16681/1984, Concentration 99.01 uM, Number of replicates 2.0, Standard deviation 0.6489689125884381 %",-2.03%
same,inhibition,"Thailand/16681/1984, Concentration 198.0 uM, Number of replicates 2.0, Standard deviation 0.41539689440615796 %",-1.67%
C#CCN(C(=O)C1CCN(c2ccc(C=O)cc2)CC1)[C@@H](C)Cc1ccccc1,inhibition,[1],17.8%
CC1(C)C[C@H](NC(=O)c2ccnc3[nH]ncc23)CN(C(=O)c2cnc[nH]2)C1,inhibition,"Thailand/16681/1984, Concentration 49.5 uM, Number of replicates 2.0, Standard deviation 0.9620790197509161 %",-0.928%
same,inhibition,"Thailand/16681/1984, Concentration 99.01 uM, Number of replicates 2.0, Standard deviation 3.8232647087452136 %",0.073%
same,inhibition,"Thailand/16681/1984, Concentration 198.0 uM, Number of replicates 2.0, Standard deviation 3.196447673971919 %",0.543%
O=Cc1ccc(N2CCC(C(=O)N3CCC(c4cccc(Cl)c4)CC3)CC2)cc1,inhibition,[1],12.1%
N[C@H]1CC[C@@H](NC(=O)[C@@H](NC(=O)OCc2ccccc2)c2ccc(OCc3ccccc3)cc2)C1,inhibition,"Thailand/16681/1984, Concentration 49.5 uM, Number of replicates 2.0, Standard deviation 1.8398540797224316 %",-5.09%
same,inhibition,"Thailand/16681/1984, Concentration 99.01 uM, Number of replicates 2.0, Standard deviation 1.5144593357940743 %",-5.38%
same,inhibition,"Thailand/16681/1984, Concentration 198.0 uM, Number of replicates 2.0, Standard deviation 1.2299788478893758 %",-0.834%
CCCC[C@H](NC(=O)OC(C)(C)C)C(=O)N[C@H](C(=O)NCc1ccc(C(N)=O)cc1)c1ccc(OCc2ccccc2)cc1,inhibition,"Thailand/16681/1984, Concentration 49.5 uM, Number of replicates 2.0, Standard deviation 0.5441055304446053 %",-3.24%
same,inhibition,"Thailand/16681/1984, Concentration 99.01 uM, Number of replicates 2.0, Standard deviation 1.2410372194636528 %",12.6%
same,inhibition,"Thailand/16681/1984, Concentration 198.0 uM, Number of replicates 2.0, Standard deviation 0.08996362825826161 %",97.6%
CC(C)(CO)NC(=O)c1cc(Cl)cc(NC(=O)Cn2cnccc2=O)c1,inhibition,"Thailand/16681/1984, Concentration 49.5 uM, Number of replicates 2.0, Standard deviation 0.3718016272993385 %",-3.9%
same,inhibition,"Thailand/16681/1984, Concentration 99.01 uM, Number of replicates 2.0, Standard deviation 1.0416819516575477 %",-5.97%
same,inhibition,"Thailand/16681/1984, Concentration 198.0 uM, Number of replicates 2.0, Standard deviation 1.29652000519297 %",-5.4%
O=C(c1cc(Cl)ccc1NS(=O)(=O)c1ccc(Oc2ccccc2Cl)cc1)N1CCC[C@@H]1CO,inhibition,"Thailand/16681/1984, Concentration 49.5 uM, Number of replicates 2.0, Standard deviation 0.383564644131335 %",17.2%
same,inhibition,"Thailand/16681/1984, Concentration 99.01 uM, Number of replicates 2.0, Standard deviation 0.18466388793957156 %",85.5%
same,inhibition,"Thailand/16681/1984, Concentration 198.0 uM, Number of replicates 2.0, Standard deviation 0.022248141217142654 %",93.6%
NCc1ncc(C(=O)Nc2ccccc2N2CCC(CO)CC2)c(C(F)(F)F)n1,inhibition,"Thailand/16681/1984, Concentration 49.5 uM, Number of replicates 2.0, Standard deviation 1.1543273279104322 %",2.58%
same,inhibition,"Thailand/16681/1984, Concentration 99.01 uM, Number of replicates 2.0, Standard deviation 0.2964400275887672 %",4.99%
same,inhibition,"Thailand/16681/1984, Concentration 198.0 uM, Number of replicates 2.0, Standard deviation 0.14686490832106133 %",6.91%
Cc1cnccc1NC(=O)c1cc(C2CC2)n(C)c1C,inhibition,"Thailand/16681/1984, Concentration 49.5 uM, Number of replicates 2.0, Standard deviation 2.6599627573534175 %",-1.31%
same,inhibition,"Thailand/16681/1984, Concentration 99.01 uM, Number of replicates 2.0, Standard deviation 2.178967369959994 %",0.05%
same,inhibition,"Thailand/16681/1984, Concentration 198.0 uM, Number of replicates 2.0, Standard deviation 3.247202341941587 %",3.32%
O=Cc1ccc(N2CCC(C(=O)N3CCN(c4ccc(F)cc4F)CC3)CC2)cc1,inhibition,[1],11.4%
CC(C)N(C[C@H](O)COc1ccc(CC(N)=O)cc1)C(=O)C1CCN(c2ccc(C=O)cc2)CC1,inhibition,[1],13.4%
O=Cc1ccc(N2CCC(C(=O)N(Cc3cnn(-c4ccccc4)c3)C3CC3)CC2)cc1,inhibition,[1],14.3%
O=Cc1ccc(N2CCC(C(=O)NC(c3ccccc3)c3ccccc3)CC2)cc1,inhibition,[1],-0.6%
O=Cc1ccc(N2CCC(C(=O)NCc3cc(F)c(F)cc3F)CC2)cc1,inhibition,[1],14.2%
O=Cc1ccc(N2CCC(C(=O)NCc3ccc(C(=O)N4CCCC4)cc3)CC2)cc1,inhibition,[1],15%
O=Cc1ccc(N2CCC(C(=O)N3C[C@@H]4C[C@H]3CN4Cc3ccccc3)CC2)cc1,inhibition,[1],13.2%
